Measured values as given in PubChem BioAssay AID1259400 (National Center for Advancing Translational Sciences (NCATS), 2018).
“And” between values parts separate entries of the source, which are not always exact repeats. Equal entries are not always repeated. Among all 350,000 compounds or so, about 2,100 (0.6%) were called active. The shares of active, inactive and inconclusive entries below differ from those in the screen.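 Rule for the calls: active = activity change of -60% or lower, but not beyond a set lower limit; inconclusive = change between -60% and -40%, or beyond the set limit; inactive = change above -40%.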
% is set by controls: 0 for no effect and ±100 for the full control effect.

The compounds below were run against Relaxin receptor 1 (Homo sapiens) (UniProt Q9HBX9) (assay: qHTS Assay for Antagonists of the Relaxin Receptor RXFP1). Conditions: HEK293-RXFP1, relaxin-stimulated cAMP HTRF, 30 min; at 57.5 µM; hits give low values.
Sequence of UniProt Q9HBX9 (Q9HBX9 whole entry, looked up): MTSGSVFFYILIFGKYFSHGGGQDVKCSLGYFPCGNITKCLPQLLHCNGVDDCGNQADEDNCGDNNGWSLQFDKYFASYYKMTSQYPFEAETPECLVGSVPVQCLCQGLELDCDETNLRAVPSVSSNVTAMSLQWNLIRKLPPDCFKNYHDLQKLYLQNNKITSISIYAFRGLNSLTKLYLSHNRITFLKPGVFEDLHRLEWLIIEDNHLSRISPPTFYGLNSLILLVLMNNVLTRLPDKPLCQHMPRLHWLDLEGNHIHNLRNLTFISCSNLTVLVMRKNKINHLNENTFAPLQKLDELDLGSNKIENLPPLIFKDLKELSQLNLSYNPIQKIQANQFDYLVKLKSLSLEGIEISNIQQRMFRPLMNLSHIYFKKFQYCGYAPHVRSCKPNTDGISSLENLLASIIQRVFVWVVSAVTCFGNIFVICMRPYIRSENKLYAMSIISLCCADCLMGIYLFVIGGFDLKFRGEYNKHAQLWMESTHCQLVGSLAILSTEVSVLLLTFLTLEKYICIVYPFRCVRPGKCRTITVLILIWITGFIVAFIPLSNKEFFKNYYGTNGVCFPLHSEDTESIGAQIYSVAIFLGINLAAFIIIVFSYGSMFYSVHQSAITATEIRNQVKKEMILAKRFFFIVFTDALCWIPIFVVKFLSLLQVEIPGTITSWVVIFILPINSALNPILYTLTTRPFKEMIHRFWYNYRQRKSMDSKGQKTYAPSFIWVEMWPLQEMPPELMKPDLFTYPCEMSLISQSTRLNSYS
For `CC1=CC(C)(C)NC(=S)N1c1ccc(C)c(C)c1`, the activity change, negative = inhibition was inactive: 5.71%.
With `Cc1ccc(C(C)C)cc1OCC(=O)N/N=C/c1ccc2c(c1)OCCO2` the activity change, negative = inhibition was inconclusive: -51%.
`C/C(=N\NC(=O)c1ccccc1[N+](=O)[O-])c1ccc(Br)s1` was tested, and the activity change, negative = inhibition was active: -65.9%.
In the case of `O=C(NCc1ccc(Cl)cc1)c1cnc(N2CCCCC2)c2ccccc12`, the activity change, negative = inhibition is reported as inconclusive: -46.3%.
In the case of `COc1cc(/C=C/C(=O)c2cccc([N+](=O)[O-])c2)cc(OC)c1OC`, the activity change, negative = inhibition is reported as inconclusive: -44.1%.
With `Cc1ccccc1N/N=C/c1sc(=O)n(Cc2cccc(C(=O)O)c2)c1Cl` the activity change, negative = inhibition was active: -72.7%.
With `CSc1ncnc2c1ncn2CCCNCc1ccc2c(c1)OCO2` the activity change, negative = inhibition was inactive: -7.79%.
With `O=C(CSc1nnnn1Cc1ccccc1)c1ccccc1` the activity change, negative = inhibition was inactive: -0.883%.
For `CC(C)c1ccc(NC(=O)C2CCCN(S(=O)(=O)c3cccc4cccnc34)C2)cc1` (configuration not stated), the activity change, negative = inhibition was inactive: -8.8%.
With `Cc1ccc(NC(=O)CN2C(=O)S/C(=C/c3ccc(O)c([N+](=O)[O-])c3)C2=O)cc1C` the activity change, negative = inhibition was active: -62.5%.
`Cc1ccc(C(=O)NCCN(C)C)cc1C` was tested, and the activity change, negative = inhibition was inactive: 5.33%.
`COc1ccc(NC2CCCCC2NS(=O)(=O)c2ccc(C)cc2)cc1` (configuration not stated) was tested, and the activity change, negative = inhibition was inconclusive: -44.4%.
`COc1ccc(-c2cc(OC(=O)c3ccc(Cl)cc3)c3c(C)oc(C)c3c(=O)c2)cc1` was tested, and the activity change, negative = inhibition was inconclusive: -43.6%.
For `CN1Cc2c(N3CCOCC3)nc3sc(C#N)c(N)c3c2CC1(C)C`, the activity change, negative = inhibition was inactive: 4.15%.
`N#C/C(=C(/O)COC(=O)CSc1ccc(Cl)cc1)c1nc2ccccc2[nH]1` was tested, and the activity change, negative = inhibition was inactive: -10.8%.
`Cc1cc(CN2CCCC(CO)(Cc3cccc(Cl)c3)C2)n[nH]1` (configuration not stated) was tested, and the activity change, negative = inhibition was inconclusive: -58.2%.
For `Cc1n[nH]c(=S)n1-c1ccccc1`, the activity change, negative = inhibition was inconclusive: -53.7%.
With `Cc1cc(C=O)c(C)n1-c1ccc(NC2CCCC2)c([N+](=O)[O-])c1` the activity change, negative = inhibition was active: -64.6%.
For `CCOc1ccccc1NC(=O)CSc1nc(N)c(C#N)cc1C#N`, the activity change, negative = inhibition was inactive: 17.2%.
With `Cc1cc(C)cc(N2C(=O)C=CC2=O)c1` the activity change, negative = inhibition was active: -85.1%.
With `COc1ccnc2c1CCCCC2S(=O)c1nc2ccccc2[nH]1` (configuration not stated) the activity change, negative = inhibition was inactive: -13.2%.
For `COc1cccc(C(=O)/C=C/Nc2cc(C)ccc2O)c1`, the activity change, negative = inhibition was active: -78.4%.
In the case of `CC(=O)c1cc(CN2CCC(C(=O)Nc3cccc(-c4cscn4)c3)CC2)cs1`, the activity change, negative = inhibition is reported as inconclusive: -43.9%.
In the case of `COc1cccc(C2c3[nH]c4ccccc4c3CCN2Cc2cnc(C)s2)c1OC` (configuration not stated), the activity change, negative = inhibition is reported as inconclusive: -52%.
For `CCc1ccc(CN(Cc2cn[nH]c2-c2ccc(OC)cc2)C(=O)Nc2ccc(C)c(F)c2)cc1`, the activity change, negative = inhibition was inconclusive: -48.1%.
`Cc1cccc(N2CCN(C(=O)c3ccc(CS(=O)Cc4ccc(Cl)cc4)o3)CC2)c1C` (configuration not stated) was tested, and the activity change, negative = inhibition was active: -78.5%.
With `COc1cc(C2CC(=O)c3c([nH]c(C(=O)OCCOC(C)C)c3C)C2)cc(OC)c1OC` (configuration not stated) the activity change, negative = inhibition was inconclusive: -47.5%.
For `CC(C)Cn1cnc2c(c1=N)C(c1ccccc1)C1=C(CC(C)(C)CC1=O)O2` (configuration not stated), the activity change, negative = inhibition was inconclusive: -41.3%.
With `COc1ccc(Nc2ncnc3c2oc2ccccc23)cc1` the activity change, negative = inhibition was inactive: -25.9%.
`CCS(CC)=NS(=O)(=O)c1ccc(NC(C)=O)cc1` was tested, and the activity change, negative = inhibition was inactive: -0.907%.
With `COc1ccc(Oc2c(Cl)cnn(-c3ccc(Cl)c(Cl)c3)c2=O)cc1` the activity change, negative = inhibition was inactive: -20.2%.
For `Cc1cc(N2CCN(C(c3ccccc3)c3ccccc3)CC2)n2ncnc2n1`, the activity change, negative = inhibition was inconclusive: -47.8%.
With `Nc1c(C(O)(C(F)(F)F)C(F)(F)F)ccc2ccccc12` the activity change, negative = inhibition was inconclusive: -51.7%.
`C=CCc1cc(Cl)ccc1OCCOCCN(C)C` was tested, and the activity change, negative = inhibition was inconclusive: -57.1%.
In the case of `Cc1ccccc1C(=O)NNC(=O)c1cccc([N+](=O)[O-])c1`, the activity change, negative = inhibition is reported as inconclusive: -46.5%.
For `CCOC(=O)CNS(=O)(=O)c1cc(-c2nnc(Nc3cccc(O)c3)c3ccccc23)ccc1C`, the activity change, negative = inhibition was inconclusive: -54.6%.
For `O=C(NCCCn1ccnc1)C(Cc1ccc([N+](=O)[O-])cc1)N1C(=O)c2ccccc2C1=O` (configuration not stated), the activity change, negative = inhibition was inactive: 1.03%.
For `CCOC(=O)/C=C/C(=O)Nc1ccc(Oc2ccccc2)cc1`, the activity change, negative = inhibition was active: -64%.
`COCCN1C(=O)c2[nH]nc(-c3ccccc3O)c2C1c1ccc(Cl)c(Cl)c1` (configuration not stated) was tested, and the activity change, negative = inhibition was active: -70%.
`CCc1nn(C(CC)C(=O)NCCc2ccc(OC)cc2OC)c(=O)c2cc3occc3n12` (configuration not stated) was tested, and the activity change, negative = inhibition was inconclusive: -40.8%.
In the case of `Cc1ccc(C(=O)C2=C(O)C(=O)N(Cc3cccnc3)C2c2ccc(OC(C)C)cc2)o1` (configuration not stated), the activity change, negative = inhibition is reported as inactive: 8.34%.
`N#C/C(=C/c1ccc(N2CCOCC2)o1)c1ccc(Br)cc1` was tested, and the activity change, negative = inhibition was inconclusive: -40.8%.
For `CC(C)(C)NC(=O)NC(=O)CN1CCN(c2cccc(Cl)c2)CC1`, the activity change, negative = inhibition was inconclusive: -57.6%.
For `Cc1ccc2nc(N3CCN(CCO)CC3)nc(-c3ccccc3)c2c1`, the activity change, negative = inhibition was inconclusive: -42.3%.
For `CC1CCC(C(C)C)C(OCC(O)CNC(C)c2ccccc2)C1` (configuration not stated), the activity change, negative = inhibition was inconclusive: -43.4%.
With `O=c1c(Cc2c(F)cccc2Cl)c(O)ccn1CCc1ccccn1` the activity change, negative = inhibition was inactive: 16.6%.
For `Cc1nn(C)cc1/C=N/NC(=O)c1sc2ccccc2c1Cl`, the activity change, negative = inhibition was active: -67.1%.
`CC(=O)c1cccc(Nc2nc(N3CCOCC3)nc(N3CCOCC3)n2)c1` was tested, and the activity change, negative = inhibition was inconclusive: -42.7%.
In the case of `COc1ccc(Cl)cc1NC(=O)Cn1ccn(Cc2ccc(C)cc2)c(=O)c1=O`, the activity change, negative = inhibition is reported as inactive: -1.08%.
In the case of `Cc1cccc(C(=O)NNC2=C(C(=O)C(F)(F)F)CCC2)c1O`, the activity change, negative = inhibition is reported as inactive: 10.4%.
`Cc1ccc(CN(C)C(=O)c2cc(Br)c(Br)s2)o1` was tested, and the activity change, negative = inhibition was inactive: 11.6%.
`Cc1[nH]c2ccccc2c1C(=O)CN1C(=O)C(=O)N(Cc2ccco2)C1=O` was tested, and the activity change, negative = inhibition was inactive: -4.48%.
With `O=C(OCC(=O)N(C1CCCCC1)C1CCCCC1)c1ccccc1O` the activity change, negative = inhibition was inconclusive: -45.2%.
With `Cc1cc(-n2c(C)cc(C(=O)COc3ccc(F)c(F)c3)c2C)no1` the activity change, negative = inhibition was inactive: -2.81%.
With `C/C(=N\NC(=O)c1nc2ccccn2c1C)c1ccc2c(c1)OCO2` the activity change, negative = inhibition was inactive: 6.7%.
With `CCc1ccc(-c2nc3ccc(Br)cc3c(C(=O)O)c2C)s1` the activity change, negative = inhibition was inactive: 5.59% and inactive: -1.28%.
In the case of `CCN(CC)S(=O)(=O)c1ccc(C(=O)Nc2nnc(NC(=S)Nc3ccccc3)s2)cc1`, the activity change, negative = inhibition is reported as active: -84.9%.
